To fix the notation:
T1: wild-type decoyMET (extracellular portion of human HGFR/MET: SEMA, PSI, IPT-1 to IPT-4) (UniProt P08581 25-932)
T1 chain: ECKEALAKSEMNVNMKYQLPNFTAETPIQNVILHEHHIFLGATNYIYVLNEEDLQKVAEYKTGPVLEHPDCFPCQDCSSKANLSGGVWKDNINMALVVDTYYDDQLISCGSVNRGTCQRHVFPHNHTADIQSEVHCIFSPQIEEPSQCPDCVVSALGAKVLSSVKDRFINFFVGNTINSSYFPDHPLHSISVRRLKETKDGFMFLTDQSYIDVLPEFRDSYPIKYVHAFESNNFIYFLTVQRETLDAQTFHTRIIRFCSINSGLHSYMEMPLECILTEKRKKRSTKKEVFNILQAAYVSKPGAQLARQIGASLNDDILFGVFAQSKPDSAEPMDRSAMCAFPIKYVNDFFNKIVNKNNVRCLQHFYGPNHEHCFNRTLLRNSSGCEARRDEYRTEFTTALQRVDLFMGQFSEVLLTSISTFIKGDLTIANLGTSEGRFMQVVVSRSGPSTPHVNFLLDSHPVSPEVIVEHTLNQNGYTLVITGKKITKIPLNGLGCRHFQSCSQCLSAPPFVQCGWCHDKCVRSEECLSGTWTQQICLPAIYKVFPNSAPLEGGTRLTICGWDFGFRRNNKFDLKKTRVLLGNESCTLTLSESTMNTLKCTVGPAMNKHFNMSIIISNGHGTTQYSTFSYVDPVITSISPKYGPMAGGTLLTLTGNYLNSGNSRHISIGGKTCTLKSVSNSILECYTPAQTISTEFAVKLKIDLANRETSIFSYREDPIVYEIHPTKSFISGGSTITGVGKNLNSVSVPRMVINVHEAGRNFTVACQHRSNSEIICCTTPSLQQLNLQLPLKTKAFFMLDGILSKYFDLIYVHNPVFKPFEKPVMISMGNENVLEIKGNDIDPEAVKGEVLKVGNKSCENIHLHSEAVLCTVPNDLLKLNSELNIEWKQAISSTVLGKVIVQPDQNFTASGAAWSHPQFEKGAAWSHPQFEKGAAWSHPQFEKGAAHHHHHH

B1: fusion protein with scMvDN30 at the N-terminal, linker L60 and decoyMET^K842E at the C-terminal (other)
chain: DIVLTQSPASLAVSLGQRATISCKASQSVDYDGGSYMSWFQQRPGQPPKLLISAASNLESGIPARFSGSGSGTDFTLNIHPVEEEDVATYYCQQSYEDPLTFGAGTKVEIKRTVAAPSVFIFPPSDEQLKSGTASVVCLLNNFYPREAKVQWKVDNALQSGNSQESVTEQDSKDSTYSLSSTLTLSKADYEKHKVYACEVTHQGLSSPVTKSFNRGECGGSSGSGSGSTGTSSSGTGTSAGTTGTSASTSGSGSGGGGGSGGGGSAGGTATAGASSGSVQLQQPGTELVKPGASVKLSCKASGYTFTSYWIHWVKQRPGQGLEWIGEINPSSGRTNYNEKFKNKVTVTVDKSSTTAYMQLSNLTSEDSAVYYCASRGYWGQGTTLTVSSASTKGPSVFPLAPSSKSTSGGTAALGCLVKDYFPEPVTVSWNSGALTSGVHTFPAVLQSSGLYSLSSVVTVPSSSLGTQTYICNVNHKPSNTKVDKKVEPKSCDKTHTGGSSGSGSGSTGTSSSGTGTSAGTTGTSASTSGSGSGGGGGSGGGGSAGGTATAGASSGSECKEALAKSEMNVNMKYQLPNFTAETPIQNVILHEHHIFLGATNYIYVLNEEDLQKVAEYKTGPVLEHPDCFPCQDCSSKANLSGGVWKDNINMALVVDTYYDDQLISCGSVNRGTCQRHVFPHNHTADIQSEVHCIFSPQIEEPSQCPDCVVSALGAKVLSSVKDRFINFFVGNTINSSYFPDHPLHSISVRRLKETKDGFMFLTDQSYIDVLPEFRDSYPIKYVHAFESNNFIYFLTVQRETLDAQTFHTRIIRFCSINSGLHSYMEMPLECILTEKRKKRSTKKEVFNILQAAYVSKPGAQLARQIGASLNDDILFGVFAQSKPDSAEPMDRSAMCAFPIKYVNDFFNKIVNKNNVRCLQHFYGPNHEHCFNRTLLRNSSGCEARRDEYRTEFTTALQRVDLFMGQFSEVLLTSISTFIKGDLTIANLGTSEGRFMQVVVSRSGPSTPHVNFLLDSHPVSPEVIVEHTLNQNGYTLVITGKKITKIPLNGLGCRHFQSCSQCLSAPPFVQCGWCHDKCVRSEECLSGTWTQQICLPAIYKVFPNSAPLEGGTRLTICGWDFGFRRNNKFDLKKTRVLLGNESCTLTLSESTMNTLKCTVGPAMNKHFNMSIIISNGHGTTQYSTFSYVDPVITSISPKYGPMAGGTLLTLTGNYLNSGNSRHISIGGKTCTLKSVSNSILECYTPAQTISTEFAVKLKIDLANRETSIFSYREDPIVYEIHPTKSFISGGSTITGVGKNLNSVSVPRMVINVHEAGRNFTVACQHRSNSEIICCTTPSLQQLNLQLPLKTKAFFMLDGILSKYFDLIYVHNPVFEPFEKPVMISMGNENVLEIKGNDIDPEAVKGEVLKVGNKSCENIHLHSEAVLCTVPNDLLKLNSELNIEWKQAISSTVLGKVIVQPDQNFTASGAAWSHPQFEKGAAWSHPQFEKGAAWSHPQFEKGAAHHHHHH
B2: fusion protein with decoyMET^K842E at the N-terminal, linker L134 and scMvDN30 at the C-terminal (other)
chain: ECKEALAKSEMNVNMKYQLPNFTAETPIQNVILHEHHIFLGATNYIYVLNEEDLQKVAEYKTGPVLEHPDCFPCQDCSSKANLSGGVWKDNINMALVVDTYYDDQLISCGSVNRGTCQRHVFPHNHTADIQSEVHCIFSPQIEEPSQCPDCVVSALGAKVLSSVKDRFINFFVGNTINSSYFPDHPLHSISVRRLKETKDGFMFLTDQSYIDVLPEFRDSYPIKYVHAFESNNFIYFLTVQRETLDAQTFHTRIIRFCSINSGLHSYMEMPLECILTEKRKKRSTKKEVFNILQAAYVSKPGAQLARQIGASLNDDILFGVFAQSKPDSAEPMDRSAMCAFPIKYVNDFFNKIVNKNNVRCLQHFYGPNHEHCFNRTLLRNSSGCEARRDEYRTEFTTALQRVDLFMGQFSEVLLTSISTFIKGDLTIANLGTSEGRFMQVVVSRSGPSTPHVNFLLDSHPVSPEVIVEHTLNQNGYTLVITGKKITKIPLNGLGCRHFQSCSQCLSAPPFVQCGWCHDKCVRSEECLSGTWTQQICLPAIYKVFPNSAPLEGGTRLTICGWDFGFRRNNKFDLKKTRVLLGNESCTLTLSESTMNTLKCTVGPAMNKHFNMSIIISNGHGTTQYSTFSYVDPVITSISPKYGPMAGGTLLTLTGNYLNSGNSRHISIGGKTCTLKSVSNSILECYTPAQTISTEFAVKLKIDLANRETSIFSYREDPIVYEIHPTKSFISGGSTITGVGKNLNSVSVPRMVINVHEAGRNFTVACQHRSNSEIICCTTPSLQQLNLQLPLKTKAFFMLDGILSKYFDLIYVHNPVFEPFEKPVMISMGNENVLEIKGNDIDPEAVKGEVLKVGNKSCENIHLHSEAVLCTVPNDLLKLNSELNIEWKQAISSTVLGKVIVQPDQNFTGGGGSGGGGSGGGGSAEAWYNLGNAYYKQGDYQKAIEYYQKALELDPNNAEAWYNLGNAYYKQGDYQKAIEYYQKALELDPNNAEAWYNLGNAYYKQGDYQKAIEDYQKALELDPNNGGGGSGGGGSGGGGSGGDIVLTQSPASLAVSLGQRATISCKASQSVDYDGGSYMSWFQQRPGQPPKLLISAASNLESGIPARFSGSGSGTDFTLNIHPVEEEDVATYYCQQSYEDPLTFGAGTKVEIKRTVAAPSVFIFPPSDEQLKSGTASVVCLLNNFYPREAKVQWKVDNALQSGNSQESVTEQDSKDSTYSLSSTLTLSKADYEKHKVYACEVTHQGLSSPVTKSFNRGECGGSSGSGSGSTGTSSSGTGTSAGTTGTSASTSGSGSGGGGGSGGGGSAGGTATAGASSGSVQLQQPGTELVKPGASVKLSCKASGYTFTSYWIHWVKQRPGQGLEWIGEINPSSGRTNYNEKFKNKVTVTVDKSSTTAYMQLSNLTSEDSAVYYCASRGYWGQGTTLTVSSASTKGPSVFPLAPSSKSTSGGTAALGCLVKDYFPEPVTVSWNSGALTSGVHTFPAVLQSSGLYSLSSVVTVPSSSLGTQTYICNVNHKPSNTKVDKKVEPKSCDKTHTTRGAAWSHPQFEKGAAWSHPQFEKGAAWSHPQFEKGAAHHHHHH
B3: fusion protein with scMvDN30 at the N-terminal, linker L134 and decoyMET^K842E at the C-terminal (other)
chain: DIVLTQSPASLAVSLGQRATISCKASQSVDYDGGSYMSWFQQRPGQPPKLLISAASNLESGIPARFSGSGSGTDFTLNIHPVEEEDVATYYCQQSYEDPLTFGAGTKVEIKRTVAAPSVFIFPPSDEQLKSGTASVVCLLNNFYPREAKVQWKVDNALQSGNSQESVTEQDSKDSTYSLSSTLTLSKADYEKHKVYACEVTHQGLSSPVTKSFNRGECGGSSGSGSGSTGTSSSGTGTSAGTTGTSASTSGSGSGGGGGSGGGGSAGGTATAGASSGSVQLQQPGTELVKPGASVKLSCKASGYTFTSYWIHWVKQRPGQGLEWIGEINPSSGRTNYNEKFKNKVTVTVDKSSTTAYMQLSNLTSEDSAVYYCASRGYWGQGTTLTVSSASTKGPSVFPLAPSSKSTSGGTAALGCLVKDYFPEPVTVSWNSGALTSGVHTFPAVLQSSGLYSLSSVVTVPSSSLGTQTYICNVNHKPSNTKVDKKVEPKSCDKTHTGGGGSGGGGSGGGGSAEAWYNLGNAYYKQGDYQKAIEYYQKALELDPNNAEAWYNLGNAYYKQGDYQKAIEYYQKALELDPNNAEAWYNLGNAYYKQGDYQKAIEDYQKALELDPNNGGGGSGGGGSGGGGSGGECKEALAKSEMNVNMKYQLPNFTAETPIQNVILHEHHIFLGATNYIYVLNEEDLQKVAEYKTGPVLEHPDCFPCQDCSSKANLSGGVWKDNINMALVVDTYYDDQLISCGSVNRGTCQRHVFPHNHTADIQSEVHCIFSPQIEEPSQCPDCVVSALGAKVLSSVKDRFINFFVGNTINSSYFPDHPLHSISVRRLKETKDGFMFLTDQSYIDVLPEFRDSYPIKYVHAFESNNFIYFLTVQRETLDAQTFHTRIIRFCSINSGLHSYMEMPLECILTEKRKKRSTKKEVFNILQAAYVSKPGAQLARQIGASLNDDILFGVFAQSKPDSAEPMDRSAMCAFPIKYVNDFFNKIVNKNNVRCLQHFYGPNHEHCFNRTLLRNSSGCEARRDEYRTEFTTALQRVDLFMGQFSEVLLTSISTFIKGDLTIANLGTSEGRFMQVVVSRSGPSTPHVNFLLDSHPVSPEVIVEHTLNQNGYTLVITGKKITKIPLNGLGCRHFQSCSQCLSAPPFVQCGWCHDKCVRSEECLSGTWTQQICLPAIYKVFPNSAPLEGGTRLTICGWDFGFRRNNKFDLKKTRVLLGNESCTLTLSESTMNTLKCTVGPAMNKHFNMSIIISNGHGTTQYSTFSYVDPVITSISPKYGPMAGGTLLTLTGNYLNSGNSRHISIGGKTCTLKSVSNSILECYTPAQTISTEFAVKLKIDLANRETSIFSYREDPIVYEIHPTKSFISGGSTITGVGKNLNSVSVPRMVINVHEAGRNFTVACQHRSNSEIICCTTPSLQQLNLQLPLKTKAFFMLDGILSKYFDLIYVHNPVFEPFEKPVMISMGNENVLEIKGNDIDPEAVKGEVLKVGNKSCENIHLHSEAVLCTVPNDLLKLNSELNIEWKQAISSTVLGKVIVQPDQNFTASGAAWSHPQFEKGAAWSHPQFEKGAAWSHPQFEKGAAHHHHHH

The first assay deals with T1, wild-type decoyMET (extracellular …). The assay can be described thus: ELISA. Background: In an ELISA, binding on a coated surface is turned into a signal by an enzyme label.
In the case of B1, binding was put at a Kd of 8.44 nM.
Still for that read-out and setting: the figure for B2 is 39.6 nM; for B3 it is 7.68 nM.

Another assay has as its target Hepatocyte Growth Factor (HGF) (UniProt P14210 32-728). The assay can be described thus: ELISA.
Chain of UniProt P14210 (P14210 32-728): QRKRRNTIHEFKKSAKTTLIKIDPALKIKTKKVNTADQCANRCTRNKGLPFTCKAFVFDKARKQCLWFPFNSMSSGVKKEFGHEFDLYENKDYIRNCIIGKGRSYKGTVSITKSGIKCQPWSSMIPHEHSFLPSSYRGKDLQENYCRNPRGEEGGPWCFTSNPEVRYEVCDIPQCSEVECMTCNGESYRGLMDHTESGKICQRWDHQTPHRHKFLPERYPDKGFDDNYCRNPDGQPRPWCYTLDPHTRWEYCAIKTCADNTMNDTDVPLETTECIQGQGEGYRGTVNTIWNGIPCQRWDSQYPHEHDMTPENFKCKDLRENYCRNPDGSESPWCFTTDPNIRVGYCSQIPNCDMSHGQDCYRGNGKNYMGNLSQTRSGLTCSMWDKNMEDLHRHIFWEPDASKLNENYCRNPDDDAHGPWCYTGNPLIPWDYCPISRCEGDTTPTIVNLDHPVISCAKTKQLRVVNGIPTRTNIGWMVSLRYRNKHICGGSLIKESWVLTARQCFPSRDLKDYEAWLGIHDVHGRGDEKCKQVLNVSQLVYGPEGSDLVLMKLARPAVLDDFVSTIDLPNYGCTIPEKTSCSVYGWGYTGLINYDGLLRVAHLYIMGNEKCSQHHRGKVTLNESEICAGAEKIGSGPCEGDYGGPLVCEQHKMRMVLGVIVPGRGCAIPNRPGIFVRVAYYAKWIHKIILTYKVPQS
In the case of B1, the Kd (usually the equilibrium constant for the complex coming apart) was found to be 0.262 nM.
For B2, the Kd turned out to be 0.125 nM.
Same read-out and setting: the figure for B3 is 0.374 nM.
